{"source": "ChEMBL document CHEMBL4888484", "about": "“Replenishing the malaria drug discovery pipeline: Screening and hit evaluation of the MMV Hit Generation Library 1 (HGL1) against asexual blood stage Plasmodium falciparum ,using a nano luciferase reporter read-out” (2022)", "note": "About 540 (0.36%) of roughly 150,000 compounds showed an effect of 50% or more. This is one part of the list."}
{"test_system": "Plasmodium falciparum", "assay": "Primary screen in NF54 nanoGlo assay, in single point, at 2uM, 72h; a lower Z score goes with more inhibition", "format": "functional, Erythrocyte", "conditions": "timepoint 72 hour", "units": {"% Inhibition": "%"}}
{"smiles": "CCc1n[nH]cc1C(=O)N[C@H]1CCN(Cc2cccnc2)C[C@@H]1O", "% Inhibition": -3, "Z score": 0.35}
{"smiles": "Cc1csc([C@@H](C#N)C(=O)c2ccc(N3CCCC3)nc2)n1", "% Inhibition": 9, "Z score": -0.99}
{"smiles": "CN1CC[C@@]2(CCC1=O)CN(c1nc3ccc(Cl)cc3s1)CCN2C", "% Inhibition": -10, "Z score": 1.59}
{"smiles": "CC(C)n1ccc(NC(=O)N[C@H]2CCS(=O)(=O)C2)n1", "% Inhibition": -8, "Z score": 1.17}
{"smiles": "Cc1noc(CNC(=O)Cn2c(C)cc(O)cc2=O)n1", "% Inhibition": -1, "Z score": 0.1}
{"smiles": "Cc1nc(C(C)NC(=O)NCC2CCOC2C(C)C)cs1", "note": "(stereo not given)", "% Inhibition": 4, "Z score": -0.45}
{"smiles": "Cn1c(C(=O)N(c2ccccc2)C2CCCCC2)cccc1=O", "% Inhibition": 9, "Z score": -0.9}
{"smiles": "Cc1nn(C)cc1[C@H](C)NS(=O)(=O)c1cccc2nsnc12", "% Inhibition": -11, "Z score": 1.05}
{"smiles": "Cc1onc(-c2ccccc2)c1C(=O)N1CCCCCC1", "% Inhibition": -8, "Z score": 1.63}
{"smiles": "Cc1ccc(C(=O)N2CCc3ccccc3[C@@H]2c2ccc(F)cc2)cc1", "% Inhibition": -13, "Z score": 1.87}
{"smiles": "Clc1ccc(N2CCOC3(CCOCC3)C2)nc1", "% Inhibition": -6, "Z score": 0.59}
{"smiles": "Cc1ccc(Oc2nccn(C)c2=O)cn1", "% Inhibition": -8, "Z score": 0.96}
{"smiles": "Cc1nn(CCO)c(C)c1CN(C)CCn1ccnc1C", "% Inhibition": -4, "Z score": 0.69}
{"smiles": "O=S(=O)(c1ccc2cc(O)ccc2c1)N1CCOCC1", "% Inhibition": -1, "Z score": 0.13}
{"smiles": "Cc1ccc(Cl)cc1NC(=O)[C@H]1CCCN(c2nc3ccccc3[nH]c2=O)C1", "% Inhibition": -3, "Z score": 0.52}
{"smiles": "CNC(=O)CCNC(=O)NCCC1CC2CCC1C2", "note": "(stereo not given)", "% Inhibition": -26, "Z score": 3}
{"smiles": "CCOC(=O)N1CCN(C(=O)c2cc3c(-c4ccccc4F)nn(C)c3s2)CC1", "% Inhibition": -16, "Z score": 2.11}
{"smiles": "CCCN1CCN(CC(=O)c2ccc3cc[nH]c3c2)CC1", "% Inhibition": -19, "Z score": 2.48}
{"smiles": "Cn1ccc(NC(=O)C(=O)Nc2cc(F)c(F)c(F)c2)n1", "% Inhibition": 2, "Z score": -0.28}
{"smiles": "O=S(=O)(CCC1CC1)N1CCC[C@H]1c1nc(-c2ccccc2)c[nH]1", "% Inhibition": -6, "Z score": 0.61}
{"smiles": "CCc1nc([C@H](C)NCc2nnc(C)n2C2CC2)cs1", "% Inhibition": -10, "Z score": 1.09}
{"smiles": "COc1ccc(CCc2nc(-c3nnn(Cc4ccccc4)c3C)no2)cc1", "% Inhibition": -18, "Z score": 3.53}
{"smiles": "O=C(c1ccc2c(c1)OCO2)N1CCC(=C2CC2)CC1", "% Inhibition": -6, "Z score": 0.75}
{"smiles": "CCOc1ccc2nc(-c3nccn3[C@@H](C)Cn3cncn3)ccc2c1", "% Inhibition": -21, "Z score": 2.69}
{"smiles": "Cc1ccsc1[C@@H]1CCCCCN1S(=O)(=O)c1ccc(Cl)cc1", "% Inhibition": 1, "Z score": -0.07}
{"smiles": "Cc1[nH]ncc1S(=O)(=O)Nc1cccc2cccnc12", "% Inhibition": -3, "Z score": 0.27}
{"smiles": "Cc1ccc(OC[C@H]2c3ccsc3CCN2C(=O)CN(CC2CC2)C(=O)c2ccccc2)cc1", "% Inhibition": -2, "Z score": 0.3}
{"smiles": "O=C(N[C@H]1CCNC1)c1csc(-c2ccc(Cl)cc2Cl)n1", "% Inhibition": 7, "Z score": -1.28}
{"smiles": "Cc1noc(C)c1CC(=O)N1CCOCC1", "% Inhibition": -10, "Z score": 1.22}
{"smiles": "CCOc1ccc(NC(=O)c2cnn3c2NC(C)=C(C(=O)Nc2ccc(Cl)cc2)[C@@H]3c2ccccc2F)cc1", "% Inhibition": 27, "Z score": -3.8}
{"smiles": "Cc1cc(NC(=O)[C@H](C)S(=O)(=O)CC2CCCCC2)on1", "% Inhibition": -3, "Z score": 0.39}
{"smiles": "C=C(C)CN(CC)C(=O)Cc1csc(C(C)C)n1", "% Inhibition": -12, "Z score": 1.06}
{"smiles": "O=C1NC(c2ccccc2)=C(c2nc3ccccc3s2)[C@H](c2ccc(C(F)(F)F)cc2)N1", "% Inhibition": -10, "Z score": 1.87}
{"smiles": "O=C(Nc1ccccc1-c1nc2ccccc2s1)c1ccc(S(=O)(=O)N2CCCCCC2)cc1", "% Inhibition": -12, "Z score": 2.33}
{"smiles": "CN(CC(=O)NCc1ccco1)Cc1cc(Cl)c2c(c1)OCCO2", "% Inhibition": 13, "Z score": -1.6}
{"smiles": "C[C@@H](CS(C)(=O)=O)N(C)C(=O)COc1ccc(Cl)cc1", "% Inhibition": 3, "Z score": -0.38}
{"smiles": "O=c1c(-c2ccccc2)cncn1Cc1nccs1", "% Inhibition": 3, "Z score": -0.5}
{"smiles": "O=C(Nc1ccc(N2CCCS2(=O)=O)cc1)Nc1cccc(F)c1", "% Inhibition": 1, "Z score": -0.1}
{"smiles": "CCc1csc(CCNc2ncc(F)c(OC)n2)n1", "% Inhibition": 18, "Z score": -2.97}
{"smiles": "O=C1CC[C@@H](CN(Cc2ccccn2)C(=O)c2cn(C3CCCCC3)nn2)N1", "% Inhibition": -1, "Z score": 0.19}
{"smiles": "CC(C)C[C@@H](N)C(=O)N(C)Cc1nc(C(C)C)no1", "% Inhibition": -9, "Z score": 1.59}
{"smiles": "Cc1ccc(C2=NC3(CCCCC3)N(C(=O)c3cccc(F)c3)C2=O)cc1", "% Inhibition": -12, "Z score": 1.22}
{"smiles": "Cc1cnn(Cc2cc(C(=O)N3C[C@H]4CN(Cc5ccccc5)C[C@@]4(CN(C)C)C3)no2)c1", "% Inhibition": -6, "Z score": 0.8}
{"smiles": "CCn1ccnc1CN(C)Cc1sccc1C", "% Inhibition": -16, "Z score": 2.01}
{"smiles": "CC1C(O)CC2CCC1N2C(C(=O)O)c1cccc(Cl)c1Cl", "note": "(stereo not given)", "% Inhibition": -10, "Z score": 1.56}
{"smiles": "COc1ccccc1CNC(=O)[C@]1(C)Cn2nc(-c3ccccc3)cc2C(=O)N1c1ccc(C)cc1C", "% Inhibition": -1, "Z score": 0.08}
{"smiles": "CCn1cc(S(=O)(=O)N2CCOC[C@@H]2CC(=O)Nc2ccccc2)cn1", "% Inhibition": 8, "Z score": -1.44}
{"smiles": "O=C(CCNC(=O)c1ccncc1)NC1(c2ccccc2)CCCC1", "% Inhibition": -8, "Z score": 0.79}
{"smiles": "CCOc1ccc(NC(=O)c2ccc(S(=O)(=O)c3ccc(Cl)cc3)s2)cc1", "% Inhibition": -15, "Z score": 1.4}
{"smiles": "Cc1c2c(=O)n(-c3nc4ccccc4s3)n(Cc3ccccc3)c2cc(=O)n1Cc1ccc2c(c1)OCO2", "% Inhibition": 42, "Z score": -2.03}
{"smiles": "Cc1ccoc1C(=O)NCC1CCN(C2CC2)CC1", "% Inhibition": -14, "Z score": 1.61}
{"smiles": "COCCc1nc(Cc2c[nH]c3ccccc23)n(C(C)(C)C)n1", "% Inhibition": -13, "Z score": 1.99}
{"smiles": "COCC1(CNS(=O)(=O)c2cc(-c3cc(C(F)(F)F)on3)oc2C)CCC1", "% Inhibition": -12, "Z score": 1.47}
{"smiles": "Cc1cccc(C(=O)NCC2CCOCC2)c1", "% Inhibition": 2, "Z score": -0.41}
{"smiles": "NC(=O)c1ccccc1OCc1csc(-c2ccco2)n1", "% Inhibition": 31, "Z score": -3.53}
{"smiles": "CC(C)=CCO[C@H]1COCC[C@@H]1NC(=O)c1cc(C)nc(N)n1", "% Inhibition": -8, "Z score": 1.24}
{"smiles": "Cn1nc(-c2nc(-c3ccc(F)cc3)no2)c2c1CCN(C(=O)c1cccc(Cl)c1)C2", "% Inhibition": 66, "Z score": -7.55}
{"smiles": "OCc1cc(-c2ccc(-c3ccn[nH]3)cc2)ccn1", "% Inhibition": -14, "Z score": 2.41}
{"smiles": "COCCNS(=O)(=O)c1ccc(-c2ccc(OC)cc2S(=O)(=O)NCCOC)cc1", "% Inhibition": -5, "Z score": 0.71}
{"smiles": "CN(c1nc2c(c(N3CCOCC3)n1)CN(C(=O)c1ccc(Cl)cc1)CC2)C1CCCCC1", "% Inhibition": -8, "Z score": 1.41}
{"smiles": "CCc1ccc(Cn2nc(CCOC)nc2[C@H](C)N2CCOCC2)cc1", "% Inhibition": -1, "Z score": 0.1}
{"smiles": "Cc1nscc1C(=O)Nc1nnc(-c2ccoc2)[nH]1", "% Inhibition": -9, "Z score": 0.89}
{"smiles": "O=c1cnc2ccccc2n1C[C@H]1CCCCO1", "% Inhibition": 1, "Z score": -0.11}
{"smiles": "c1cc(-c2ccc3oc(-c4cccnc4)nc3c2)cc(-c2cc[nH]n2)c1", "% Inhibition": -11, "Z score": 1.97}
{"smiles": "CCCCN1C(=O)c2ccc(C(=O)Nc3ccc(Oc4ccccc4C#N)nc3)cc2C1=O", "% Inhibition": 0, "Z score": 0.01}
{"smiles": "CC(C)c1nc(CCN(C)C(=O)c2cnc(O)cn2)no1", "% Inhibition": 10, "Z score": -1.29}
{"smiles": "CCn1cc(-c2ccccc2)cc1C(=O)NCCCN1CCCC1", "% Inhibition": 12, "Z score": -1.95}
{"smiles": "CN(C)C(=O)N1Cc2ccccc2C[C@H]1c1ccccc1", "% Inhibition": -3, "Z score": 0.38}
{"smiles": "Cn1cc(C(=O)NCC(O)c2ccccc2F)c(C2CCCN(C(=O)OC(C)(C)C)C2)n1", "note": "(stereo not given)", "% Inhibition": 1, "Z score": -0.09}
{"smiles": "Cc1nc(CCNc2nc(-c3ccncc3)nc3c2CCNC3)sc1C", "% Inhibition": 2, "Z score": -0.16}
{"smiles": "O=C(Nc1ccc(-n2ncc3ccccc32)cc1)N1CCOCC1C1CCCO1", "note": "(stereo not given)", "% Inhibition": 8, "Z score": -0.92}
{"smiles": "C[C@H](NC(=O)c1cn(C(c2ccccc2)c2ccccc2)nn1)c1ccccc1", "% Inhibition": -2, "Z score": 0.25}
{"smiles": "CCc1ccc(S(=O)(=O)Nc2cccn3nc(C)nc23)cc1", "% Inhibition": -9, "Z score": 1.03}
{"smiles": "CN(Cc1ccccn1)C(=O)[C@@H]1CCC[C@@H]1CNC(=O)OC(C)(C)C", "% Inhibition": -6, "Z score": 1.16}
{"smiles": "O=C1C[C@H](Nc2ccncc2Cl)CN1C1CC1", "% Inhibition": 5, "Z score": -0.72}
{"smiles": "CC1(C)COc2c(S(=O)(=O)N3CCn4nccc43)cnn2C1", "% Inhibition": -3, "Z score": 0.47}
{"smiles": "CCn1nccc1[C@H]1Nc2ccccc2C(=O)N1c1ccc(OC)nc1", "% Inhibition": -13, "Z score": 1.11}
{"smiles": "COc1cccc(C(=O)N2CCC3(CC2)N(C)C(=O)CS3(=O)=O)c1C", "% Inhibition": -8, "Z score": 1.13}
{"smiles": "COc1ccc(-c2noc([C@H](C)O)c2C(=O)N2CCC(Cc3ccccc3)CC2)cc1OC", "% Inhibition": -7, "Z score": 1.16}
{"smiles": "O=C(c1cc(-c2ccc(F)cc2Cl)c[nH]1)N1CCCCC1", "% Inhibition": -19, "Z score": 2.09}
{"smiles": "COc1ccc(CNCc2ccccc2CN2CC(C)CC(C)C2)c(OC)c1OC", "note": "(stereo not given)", "% Inhibition": -3, "Z score": 0.41}
{"smiles": "CCC=C(C)C(=O)Nc1cccc(Cn2ccnc2)c1", "% Inhibition": 7, "Z score": -1.04}
{"smiles": "COc1ccccc1Cn1ncc2[nH]c(-c3ccc4c(c3)OCCO4)nc21", "% Inhibition": -8, "Z score": 1.4}
{"smiles": "CCN(Cc1nc(C(C)C)no1)C(=O)c1cnc[nH]1", "% Inhibition": -4, "Z score": 0.83}
{"smiles": "CN1C(=O)NC(C)(C2CCCN(CCc3ccccc3Cl)C2)C1=O", "note": "(stereo not given)", "% Inhibition": 3, "Z score": -0.4}
